Measurements reported in US20040086994A1.

Biological target: pCS204M-Saccharomyces cerevisiae, C-terminal His-tag S77Y mutant full length ACCase protein, 254.3 kDa protein (Saccharomyces cerevisiae) (UniProt Q00955)
Assay: cell-based or functional assay

Relative Enzymatic Activity (%) in the 14C isotope exchange ACCase assay, +250 µg/ml avidin: 2.5%
Substance: avidin (from UniProt P02701 25-152)
